Article PMC12136788
The list shows a part of the results.

B1: chr1:67411267:67411372:-|3pUTR|ENSG00000142864|unk|FALSE|unique (ssRNA)
RNA: GGGAGUUCUACAGUCCGACGAUCAACUCAUUUCCAAACAUGUACCAUGUUUUAUAAACCUCUUGAUUUCCAGCAACAUACUAUAGAAAACACCUGCUACUCAAAACACAACUUCUCAGUGUCAUCCAUUGCUGUCGUGAGAGACAACAGAGGAUUGAGCAUCA
B2: chr7:103374401:103374592:-|CDS|ENSG00000170615|control|control|control (ssRNA)
RNA: GGGAGUUCUACAGUCCGACGAUCCCUGCCCUAUGGGAGCUGCUGUUCCACAGCAUUCAUGAUGCAGUUUUAGGCAGCCAACUUAGAGAGGCACUUGCUGAACAGGAAGCCUCGGCUCCCCCUUCCCAGGAGGACUUGGAGCCCCAACAGAGGAUUGAGCAUCA
B3: chr22:21448335:21448436:+|3pUTR|ENSG00000169635|unk|total|mutant (ssRNA)
RNA: GGGAGUUCUACAGUCCGACGAUCGCAGUCCUGGCCCCCGGCCACUGUCUCGGGGCCCACCUCUCGCCCCUCAUCUUGGUAAUCCGCCAGCCUCAGAUACUUCUGUGGGCCCUGAAGUGGGCUCUCAAGGUCAGACCAAGGUUGCAACAGAGGAUUGAGCAUCA
B4: chr12:25205306:25205412:-|3pUTR|ENSG00000133703|unk|total|mutant (ssRNA)
RNA: GGGAGUUCUACAGUCCGACGAUCGUCAUAUCAAACAUUAAAAAUGACCACUCUUUUAAUUGAAAUUAACUUUUAAAUGUUUACCGGAGUAUGUGCUGUGAAGUGAUCUAAAAUUUGUAAUAUUUUUGUCAUGAACUGUACUACCAACAGAGGAUUGAGCAUCA
B5: chr11:22846921:22847509:-|three_prime_utr|ENSG00000255359|control|control|control (ssRNA)
RNA: GGGAGUUCUACAGUCCGACGAUCCUCCACCAUUUCGGAAAAAUAAACACAGUGCAAGUAUUUAAUAUCCAAGCUACAGGCUCUAGAAUUUUAUUAAAUGCCAUCUCUCACUACCAUAUUUUUCUUUCCUGUGGUAAACUUGAACAACAGAGGAUUGAGCAUCA
B6: chr8:65707876:65707977:+|CDS|ENSG00000066855|unk|total|mutant (ssRNA)
RNA: GGGAGUUCUACAGUCCGACGAUCCCUGCUGCCCUCACCGCAGAGGCUCUGAAAAAGAAAUUUGCUUAUCGGUAUCGAAGUGACCGCCAAGAUGAAGUUGAAAAAGGAAUUCCAAAGUCUGAAUCAGAGGCCACCUCAGAGAGACAACAGAGGAUUGAGCAUCA
B7: chr13:106491261:106491362:-|3pUTR|ENSG00000125266|msi1|total|mutant (ssRNA)
RNA: GGGAGUUCUACAGUCCGACGAUCACAAUAAUGAGAGCAAAUGCAAAAAUAACCAAGUCCUCCGAAGGCAUCUCACGGAACCGCCGACCCGGAAGUACGAGCCCCACAGAGCAGGAAGCCGAUGUGACUGCAUCAUAUAUUUAACAACAGAGGAUUGAGCAUCA
B8: chr16:66769962:66770309:-|CDS|ENSG00000249961|control|control|control (ssRNA)
RNA: GGGAGUUCUACAGUCCGACGAUCCUCCAUGCAGAUCGGAUUGGUCGAGGUAGCAAAGCAGAAGAUGAGGAUAAAAGCCAUUCUAGACAGUUACAGAGUUAUAAGUCCCAUGGAGUCAUGUCUAAAGCAUGUACAAAUGAUGACCAACAGAGGAUUGAGCAUCA
B9: chr2:224001733:224001845:-|CDS|ENSG00000135919|unk|FALSE|bound_elsewhere (ssRNA)
RNA: GGGAGUUCUACAGUCCGACGAUCGGCCUCUGUGACGCUGCCUUCCAUCUGCUCCCACUUCAAUCCUCUGUCUCUCGAGGAACUAGGCUCCAACACGGGGAUCCAGGUUUUCAAUCAGAUUGUGAAGUCGAGGCCUCAUGACAACAACAGAGGAUUGAGCAUCA
B10: chr17:27756765:27757353:-|three_prime_utr|ENSG00000007171|control|control|control (ssRNA)
RNA: GGGAGUUCUACAGUCCGACGAUCCAAGUCUUAUUUCCUCAACGUUGCUCCCCAUCAAGCCCUUUACUUGACCUCCUAACAAGUAGCACCCUGGAUUGAUCGGAGCCUCCUCUCUCAAACUGGGGCCUCCCUGGUCCCUUGGAGCAACAGAGGAUUGAGCAUCA
B11: ENSG00000070961:be:win_1801|CDS|ENSG00000070961|bound_else_gene|NA|bound_elsewhere_windowed (ssRNA)
RNA: GGGAGUUCUACAGUCCGACGAUCAAGGGUGCAUCUGAGAUAAUUCUGAAAAAGUGUUUCAAAAUCUUGAGUGCUAAUGGUGAGGCAAAAGUAUUCAGACCAAGGGACCGUGAUGAUAUUGUAAAAACUGUGAUUGAACCGAUGCAACAGAGGAUUGAGCAUCA
B12: chr15:67202635:67202736:-|3pUTR|ENSG00000103591|msi1|total|mutant (ssRNA)
RNA: GGGAGUUCUACAGUCCGACGAUCUGCCAAAAUUGCCCUUAUCAUGUUGGCUGCCUGACUUGUUUACCGGGUCCCCUUAAUUUCCGUUUUCCGCCGGAGGUUAAGGAGAAAUCUUUUUUUUCCUCAGUAUAUUGUAAGAGAGUGCAACAGAGGAUUGAGCAUCA
B13: chr12:64128047:64128160:+|CDS|ENSG00000196935|unk|total|mutant (ssRNA)
RNA: GGGAGUUCUACAGUCCGACGAUCGGCAGCCUGACCAACAUCAGCCGGCACGACUCCCUCAAGAAGAUCGACAGCCCUCCCAUCCGAAGGUCCACGUCAUCAGGGCAAUACACGGGCUUCAAUGACCACAAGCCACUGGACCCACAACAGAGGAUUGAGCAUCA
B14: ENSG00000067955:stop:overlap|stop_codon|ENSG00000067955|stop_codon|NA|stop_codon (ssRNA)
RNA: GGGAGUUCUACAGUCCGACGAUCAAAUGGAGGUGAGAGUUUCACAGCUGCUGGCAGUAACUGGCAAGAAGACAACAAGACCCUAGUCCUGGUUCCAAUUUAGGUGGUGGUGAUGACCUCAAACUUCGUUAAUUAAUAGCACAGCAACAGAGGAUUGAGCAUCA

Target: MSI1 full-length (mouse, UniProt Q61474 1-362)
UniProt Q61474, sequence (Q61474 whole entry): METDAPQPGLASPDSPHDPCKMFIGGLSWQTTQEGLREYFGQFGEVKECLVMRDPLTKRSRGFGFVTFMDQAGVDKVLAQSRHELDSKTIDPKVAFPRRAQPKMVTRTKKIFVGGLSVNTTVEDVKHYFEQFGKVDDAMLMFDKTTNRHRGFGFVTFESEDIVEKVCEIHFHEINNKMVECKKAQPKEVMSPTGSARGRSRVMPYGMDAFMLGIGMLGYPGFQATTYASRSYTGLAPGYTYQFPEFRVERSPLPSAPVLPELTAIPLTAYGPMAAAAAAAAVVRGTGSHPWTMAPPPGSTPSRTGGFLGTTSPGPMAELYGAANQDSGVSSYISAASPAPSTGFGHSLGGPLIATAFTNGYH
Assay: nsRBNS (natural sequence RNA bind-n-seq); RBNS binding buffer (assumed for nsRBNS): 25 mM Tris pH 7.5, 150 mM KCl, 3 mM MgCl2, 0.01% Triton X-100, 500 ug/ml BSA, 20 U/ml SUPERase-In, 4 C; UNK is unkempt and MSI1 is Musashi-1; names of the RNAs are library labels; protein concentration not given here; high values mean tight binding

Binder | binding signal
B1 | 1.02 enrichment R
B2 | 0.468 enrichment R
B3 | 0.39 enrichment R
B4 | 0.498 enrichment R
B5 | 0.577 enrichment R
B6 | 0.312 enrichment R
B7 | 0.694 enrichment R
B8 | 1.22 enrichment R
B9 | 0.435 enrichment R
B10 | 0.402 enrichment R
B11 | 0.407 enrichment R
B12 | 0.438 enrichment R
B13 | 0.423 enrichment R
B14 | 0.854 enrichment R
